# Source: the supplement of paper PMC10126150
# Values marked as one replicate rest on one cluster of the flow cell; about a third of the high ones do not repeat.
# Test system: ATP
# Assay: switch fluorescence ratio, 500 uM ATP over buffer (Cy3 cluster intensity, sum of 5 cycles each) (fold (ratio)); higher = stronger signal-on switching upon ATP binding; sequences stand for … in TCGTCGGCAGCGTCAGATGTGTATAAGAGACAGTTTTTTTTTTTTTTTTTTTTTTTTT…TC
# Settings: aptamer strand: ATP DNA aptamer (quencher-CACCTGGGGGAGTATTGCGGAGGAAGG + anchor), 100 nM annealed; ATP concentration: 500 uM; one replicate
# Summary of the method: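 Per cluster, summed Cy3 intensity from the target cycles was divided by that from the buffer cycles to give the fluorescence ratio, then averaged per switch-domain sequence. Clusters outside 100-1000 RFU were excluded. The Cy3-labelled switching-strand clusters, on a modified Illumina MiSeq flow-cell, were annealed to 100 nM quencher-labelled ATP aptamer and imaged in selection buffer, then after 15 min with 500 uM ATP at 22 °C, for five cycles with NaOH stripping and re-annealing between them.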
# 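Note: ATP exposure 15 min at 22 °C before imaging.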
row,Sequence,switch fluorescence ratio
1,TTCATATTTG,0.97
2,ATAAGGAAA,0.999
3,CCACCAGGCT,1.88
4,CCACAAGGGA,1.11
5,TAGGGATAGG,0.996
6,TACGGTGACT,1.11
7,GACTGTCTTG,0.957
8,ACGGGGCCCG,0.986
9,CATGAAACCT,1.15
10,TCGTTAGACT,1.02
11,CACACATTAC,1.69
12,CCCTTAGGAA,0.99
13,TGAACGGTT,0.978
14,CGTGGACTTA,1.04
15,CAGACTCTTA,0.939
16,CATATGTCAC,0.993
17,ATAGTAGAG,1.01
18,CGGACTAAGG,0.95
19,TAGGCTAGCC,1.04
20,GGCATGGTTA,0.981
21,TGGGGCATAC,2.13
22,AATCTGCT,1.01
23,AGTACTACTG,1.07
24,TCCGCACCGG,1.29
25,AGAGGTTAGT,1.01
26,CGGGTTTACT,0.976

row,Sequence,switch fluorescence ratio
1,GAGTGGTAAA,1.05
2,CCGGTGCCCG,1.15
3,TACTTTATAG,0.99
4,TGGACCGTAT,1.05
5,TCCAGAGGAA,1.05
6,TGCTGCGTTT,0.997
7,GTGGTACTT,0.966
8,TCGTTTATCG,1.02
9,CGATCGAATT,1.01
10,GATATCCAAG,0.932
11,CTACGCTTGG,1.91
12,AGACAAAATC,1.07
13,TGGCCTTGGG,0.994
14,GTTGCTTTGT,0.986
15,CCCAATGAG,1.04
16,CTAGGTTCG,0.928
17,TTAAGCGTGC,0.993
18,TAGTTAATGT,1.05
19,ATTGACCATG,1.05
20,GCTAAGAAGT,0.973
21,ATGTTGGT,1
22,GTCGTGAGAA,0.995
23,CCGGTTTGCT,1.05
24,AACGTGATTT,1.05
25,GATTGAGGGT,0.994
26,TTTTACACTA,1.04

row,Sequence,switch fluorescence ratio
1,TACTCCGGAG,0.987
2,GTTGGTACAG,1.04
3,CGTTCTGGAT,1.01
4,CTGTCCCTAT,0.99
5,CGTGAACATC,0.966
6,AAAGGGGCCT,1.03
7,TTCATTCTAA,0.993
8,CTAGTCGGGG,0.994
9,TCATATATCG,1.04
10,ATTTGGCTTT,0.987
11,GCCATTTCGG,0.977
12,GCGTCCAGTC,1.07
13,GTTTGTTTCG,0.99
14,TACGTGTTCT,1
15,GGAGTCCTTC,0.985
16,GGATGTACCC,1.04
17,CCAACGTTAT,1.86
18,TATTCTAGAT,1
19,CGTATCTTTC,1.03
20,GGGTGTAAGT,1.04
21,GGACGGTACA,1.34
22,GGAGGGAAAC,0.993
23,CAAATAACTA,0.973
24,TGACTGCAGT,1.02
25,AGGCTTTTGG,1.01
26,GGCTTATTCG,1.01

row,Sequence,switch fluorescence ratio
1,TAATGAATTT,1
2,GTGGATAAAT,0.979
3,CGGCCGTGGA,1.01
4,AGAACGGGAC,1.21
5,ATACCCGGGG,0.992
6,TCCCATATCC,1.09
7,AGGAGGCTTA,0.928
8,AAAAAGCTTG,1.03
9,ACCTGGGCTA,1.04
10,GCATTGAATT,1.01
11,TCACATTCTG,1.03
12,CGTCTTGCTG,0.973
13,GGTTGAACGC,0.991
14,GGTGGATATA,1.03
15,GGTCTGGGG,1.02
16,CGCCCCTGAC,1.6
17,GCTTGTGTAT,1.04
18,TTTATTGCCA,0.997
19,CATCATTTTT,1.03
20,GGTGTAGCAC,1.03
21,CAGAGGTTCG,1.01
22,CGAATGAAAG,0.972
23,GGCCGACACG,0.978
24,GCTGTATTGC,0.955
25,GCAGCGCCAA,1.04
26,AACATTACTG,1.15

row,Sequence,switch fluorescence ratio
1,ATTGTCTTAG,0.994
2,GCGTATCGTG,0.998
3,TGCGAAAGTT,0.975
4,TCATCAGTTA,1.04
5,AATATGGTAA,0.987
6,AGTCAAGTAC,1.88
7,GGCGTCTGTT,1
8,CCTCTAGTGG,1.07
9,CTTCGGTACT,1.44
10,GACAGTTATG,0.955
11,CGTGGTTCTA,0.959
12,ATGTGTCGCA,1
13,CACACTTAAA,1.01
14,TGATTACCGG,1.02
15,TTCAACCGCA,4.51
16,CGTTCGGTGC,1.06
17,GCCCCAAATA,0.942
18,AGGGCACCCT,1.01
19,CTTTGCTGCA,0.978
20,GATCTAGGA,1.01
21,CCGCGAACGT,1.54
22,TAGAGTACAC,1.03
23,TGCAAGGCAC,1.06
24,GCGACTCTAG,1
25,CGCTCTAGG,1.04
26,GGTCGTACTT,0.972

row,Sequence,switch fluorescence ratio
1,TAACCGCTGG,1.01
2,AGGCGCAAGT,1.02
3,CCCGCACGTT,1.36
4,TCCCGAGGT,1.08
5,TCACGCTAGT,1.07
6,GAAAAGACCG,1.02
7,AGAAAGATAT,0.979
8,AGTGAAGCGC,0.963
9,GCTAGTAGAT,1.02
10,AGTTCATGGT,1.02
11,TGACGAGGCT,1.12
12,CGTGCGAGGG,0.992
13,TCCACTGCTC,2.13
14,TACGGGGA,0.963
15,TCAAGTGATG,0.966
16,GACATAGGAT,0.937
17,GATGTGGCTA,0.996
18,GGTATCCAGG,1.2
19,GGACAGGCAG,1.01
20,TGTATGTTGA,0.988
21,ACTCGTACCG,1.04
22,ATAAAGATTG,0.971
23,TTATAAGTAA,1.08
24,AGTTATATAT,1.06
25,GGTGCGATGG,1.07
26,TAACAGCGCA,0.997

row,Sequence,switch fluorescence ratio
1,ATGCAAGG,1.04
2,TCTACTATGG,1
3,TGGGGGAGT,0.98
4,TCGAAAGAGG,1.04
5,AACTGGCCCA,0.991
6,CCCTTACTTA,1.1
7,GCCCTCGACA,1.03
8,GCTACACGTT,1.04
9,TATTTTAAGA,1.15
10,AGGGTTGCCC,1.03
11,GTGAATTGTT,0.974
12,CAGTTTGCCA,1.02
13,GCAAGATCTA,1.01
14,TAACACAAA,1.03
15,AGGGCATGCG,1
16,CAAACTTAAC,1.07
17,ACTTGGTC,1.06
18,GTGAGTGTGG,0.937
19,CGGGCTGGA,1.04
20,CTAGGTATT,0.986
21,GCCCAAGTTA,1.03
22,CAGGTTACTC,1.07
23,CCAGTCGGTG,1.03
24,GACGAATGTT,0.974
25,GTCGTTAGTC,1
26,CAAGGCTAGT,1.08

row,Sequence,switch fluorescence ratio
1,GTTCTGGCTG,1.04
2,GTAATACTGG,1.22
3,ATCGTTGGTT,1.01
4,CTCGCTTCG,1.01
5,CAAGGGAAAT,1.03
6,GTATTGAGGA,0.98
7,AGGAGTAGGT,0.968
8,TCCGCCTAGG,1.15
9,ATACTCGTCG,0.97
10,TAATGGGCC,1
11,TGCACAGAGC,0.962
12,ATAACTCTGT,0.994
13,GCGGAGATTG,1.01
14,CTTAGAACGT,1
15,TCGGACCTG,1.13
16,GCCGTCTGTT,1.02
17,GCAGTTCTGA,0.988
18,ACTAGCACTT,1.15
19,AGTAAAACAG,1.03
